# Measured values taken from the RNAGym collection of RNA variant scans (doi:10.7554/elife.90254).
# Read counts are not given, so values of variants with three or more changes are uncertain.
# B1: LINE1-mini (parent)
# chain: GGCAGAGCUCAACACAGCGUGGCAAAGUGGCUGUGGCUAGACUGCC
# Variants of: B1
# Experiment: self-cleavage, relative activity (ratio to wild type); higher = more cleavage; in vitro, sequencing; the parent is a self-cleaving ribozyme
row,Variant,self-cleavage
1,A4C G27C G33A,0.05
2,A4G A11C C37U,0.01
3,A4G C10A C42A G44C,0.01
4,A4G A6U G22C,1.12
5,A4C G22A C23U G30U G33C,0.11
6,A4C G22C U38G,0.01
7,A4G A14G G29U C45G,0.13
8,A4C G19A U28G,0.03
9,A4G A26G G27U C31U G36U C46G,0.02
10,A4G A6U C8G U20C G21A,0.03
11,A4C G7C A26G,0.19
12,A4C G19U G21C C46A,0.08
13,A4G A6U G29A,2.49
14,A4C G27A C42G,0.09
15,A4C G7U U20C G44U,0.08
16,A4C G5C C8G C15G A16C G29A,0.04
17,A4G C8A A26G C37U,0.52
18,A4C G22C G27U C45U,0.07
19,A4C G5U C18G G21A G30A C42U,0.21
20,A4C G22U G27A A41G,0.01
21,A4G C8G U28A,0
22,A4G A6U A41U,0.05
23,A4G A14U U32C U43A,0.28
24,A4C G22U U43A,0.03

row,Variant,self-cleavage
1,A4C G33U G44A,0.04
2,A4C G21A G35U C42A G44C,0.04
3,A4C U9C C10A C37A,0.09
4,A4C G21C A24U C46U,0.06
5,A4C G19U A24C G33C,0.03
6,A4C G7A G27C,1.01
7,A4C G5C A16U G27C C45A,0.08
8,A4C G22U C46A,0.37
9,A4G C8A C42G,0.2
10,A4G A11G G17A,0.03
11,A4C G5A A12G A14G G30U C46A,0.08
12,A4G A6G G33C A41U,0.03
13,A4C U9C G22U C23A C31U,0.05
14,A4G C8U A26G G35U,0.45
15,A4G C8A C23U C45A,0.92
16,A4G A11U C18A C23G A24U,0.02
17,A4C G19U U28A C37A,0.06
18,A4G C8U A11C C15G G35A A41C,0.01
19,A4C G5A G7A A14G C23U G27U C45A,0.73
20,A4G A6U G19A,0.14
21,A4G A6U G17C G29A C45G C46U,0.03
22,A4C G29A C31A G36C C42U,0.04
23,A4C G5C G30U,0.03
24,A4C G19C C37U,0.02

row,Variant,self-cleavage
1,A4G A12U C46U,0.11
2,A4C G5A C13A G19A G29C,0.1
3,A4C G7A U34C C37G A39U,0.53
4,A4G A14C A25U G29C,0.01
5,A4C G19C G40U,0.04
6,A4C U28A C45U C46U,0.12
7,A4G A14U G19C U20A,0.02
8,A4C G7A C18G,0.2
9,A4G A26G U38C,0.08
10,A4G C8G C13A C15A G19U G33A,0.03
11,A4G A12U A14U A41G,0.09
12,A4G A6C C37U A41U,0.12
13,A4G A24G G29A C46A,0.12
14,A4C G21A C37U,0.2
15,A4C U9A U32C C46A,0.08
16,A4C U20G U32C U38C,0
17,A4G A16G G19C G21A A25C G33C A41C G44A,0
18,A4C U20A G27C U34G,0.02
19,A4C G5U A24U C45G,0.14
20,A4G C10A C13A C42U,0.02
21,A4G C8A A16C C23A,0.75
22,A4C G7A C10A,0.04
23,A4C G5A C8U,0.26
24,A4G C8U G22A G30U C31G,0.15

row,Variant,self-cleavage
1,A4G C8A G22C G36A C37A C46A,0.17
2,A4C G21U A26U G44U,0.16
3,A4C G30C C31A G35U G40A,0.23
4,A4G A26U G33A,0.1
5,A4G A6U G35A G36U,0.24
6,A4C G19C U38G U43C,0
7,A4C G22C G27U G33U C42U C45A,0.15
8,A4G A11G A14G,0.01
9,A4C G29U G36C,1.53
10,A4C G29U G36U,0.81
11,A4C G29U U34C A39C A41G,0.5
12,A4G A12C A14C G21U G22A U34C,0.06
13,A4G A6G C8G A12C C13A G29U U38A,0.01
14,A4C U34C G44A,0.13
15,A4C G7A G36C,0.35
16,A4C G17A G22U G29A,0.17
17,A4C G17A U20G G30C,0.02
18,A4G A12C C18U G35A C46A,0.12
19,A4G A6G U9G C37A U43G,0.06
20,A4C G19C U20G,0.05
21,A4G A16C C45U,0.02
22,A4G A14U A26G U38G,0.06
23,A4C G17C G21U C23A G35U,0.11
24,A4G A16C G17A G21U G33A C37G U43A C46U,0.01

row,Variant,self-cleavage
1,A4G C8U C31A,0.22
2,A4G C10U A26U,0.23
3,A4G C10A A41G,0
4,A4G A11C C31U,0.03
5,A4C G21U G40U,0.12
6,A4C G5C C18G C23U,0.01
7,A4C G5U G27C,0.07
8,A4G A11U G21A G36U,0
9,A4C G5C U9A A26C,0.09
10,A4C G19A A25U,0.03
11,A4G C8U G29U,0.09
12,A4G A12G G21U,0.01
13,A4C U20A C42U U43G,0.01
14,A4C G5C G21U G30A G33U U38C,0.38
15,A4C G17U G22U A26U U38C G40U U43A,0.09
16,A4G A12U C45U,0.04
17,A4C G7U U20A,1.04
18,A4G A6G C8A U20A U34G G36C C45G,0.11
19,A4C G30U C46G,0.04
20,A4G A6G C31U G40A,0.04
21,A4G C8U C10A C15U A24U G33A,0.02
22,A4C G5A C15A,0.05
23,A4G C8U C13U G33U C42A C45G,0.32
24,A4G C10A G30A,0.05

row,Variant,self-cleavage
1,A4G C10A G30U,0.02
2,A4C G17C A25U G44A,0.07
3,A4G A16U G19U U20G C37A,0.03
4,A4G C10A C18G G19A A25G G27A,0.02
5,A4G A14C G19A C42G G44C,0.02
6,A4G C10A G22U,0.12
7,A4G A26G G27C G44C,0.01
8,A4C G22A U28A,0.03
9,A4C U9A G17C C45A,0.06
10,A4G A6U G21A,0.1
11,A4G A12G G22A,0.02
12,A4C G5A A24G C31A,0.03
13,A4C U28A U34A,0.06
14,A4C G5U A12U A16G,0.1
15,A4C U20A C31U,0.01
16,A4G A16G A39G,0.03
17,A4C G35C U43C,0.35
18,A4C G19A C31A G36C U43A G44A C46U,0.02
19,A4G C8U G17C G21A U32G,0.04
20,A4G A26U U28A A41C,0.02
21,A4G A6G A12G G30C G33A A41C,0.01
22,A4G C10U A11U G29A,0.05
23,A4C G33U U43C,0.06
24,A4G A12C C42G,0.01

row,Variant,self-cleavage
1,A4G A24G A25G,0.16
2,A4G A14G C18A G27A G30U U34A,0.06
3,A4C G5C A12U C31U G40C,0.05
4,A4C G7C C8G G17C G29A,0.44
5,A4C G5U G40A,0.1
6,A4G A6G G30U,0.08
7,A4G A26C U28G,0.59
8,A4C U34G C37U,0.02
9,A4G A24G U28A,0.19
10,A4G A16C C31A,0.03
11,A4C G7U C8A C15G C18G C46G,0.03
12,A4C G5U A16G U34A G40U A41C,0.03
13,A4C U9C C13A C37G,0.03
14,A4G A12G C37G,0.09
15,A4C G19A C46U,0.37
16,A4G A6U A24U A25U G35A A39G,0.07
17,A4G C10A G17C G19A A41C,0.03
18,A4C G17U C37U,0.05
19,A4G A11G G27A G29C U34A U38A,0
20,A4C U28G C42A,0.13
21,A4G C10A A16C G44U,0.01
22,A4G A24G G33A,0.08
23,A4G C8A C18A G19U A26U C31A G44U,0.36
